Measured values: PubChem BioAssay AID1645882 (National Center for Advancing Translational Sciences (NCATS), 2021)
Hit rate of the full screen: of about 16,000 compounds, about 120 (0.75%) were called active. Inconclusive results (about 4%) are left out. Calls come from the whole dose curve; as a rule, active = well fitted inhibition curve with a large enough effect; inconclusive = small, poorly fitted or top-dose-only effect; inactive = no such curve, though single readings can be large or run the other way. The list shows a part of the results.

target: Rap guanine nucleotide exchange factor 3 (Homo sapiens) (UniProt O95398); test: Validation qHTS for antagonist of cAMP-regulated guanine nucleotide exchange factor 3 (EPAC1); conditions: EPAC1 Rap1B-BODIPY-GDP exchange, fluorescence; series mostly up to 150 µM; activity change, negative = inhibition: at the top concentration; note: nearly all actives have a fitted effect of over 75% in size
Procedure, shortened: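 EPAC1 (100 nM) mixed with 250 nM RAP1B-BODIPY-GDP and 50 uM GDP; compounds in concentration series, 5 min at room temperature. Fluorescence (ex 480/em 540 nm) read every 5 min for 30 min; normalized to ATA control and DMSO.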

Sequence of UniProt O95398 (O95398 whole entry, looked up): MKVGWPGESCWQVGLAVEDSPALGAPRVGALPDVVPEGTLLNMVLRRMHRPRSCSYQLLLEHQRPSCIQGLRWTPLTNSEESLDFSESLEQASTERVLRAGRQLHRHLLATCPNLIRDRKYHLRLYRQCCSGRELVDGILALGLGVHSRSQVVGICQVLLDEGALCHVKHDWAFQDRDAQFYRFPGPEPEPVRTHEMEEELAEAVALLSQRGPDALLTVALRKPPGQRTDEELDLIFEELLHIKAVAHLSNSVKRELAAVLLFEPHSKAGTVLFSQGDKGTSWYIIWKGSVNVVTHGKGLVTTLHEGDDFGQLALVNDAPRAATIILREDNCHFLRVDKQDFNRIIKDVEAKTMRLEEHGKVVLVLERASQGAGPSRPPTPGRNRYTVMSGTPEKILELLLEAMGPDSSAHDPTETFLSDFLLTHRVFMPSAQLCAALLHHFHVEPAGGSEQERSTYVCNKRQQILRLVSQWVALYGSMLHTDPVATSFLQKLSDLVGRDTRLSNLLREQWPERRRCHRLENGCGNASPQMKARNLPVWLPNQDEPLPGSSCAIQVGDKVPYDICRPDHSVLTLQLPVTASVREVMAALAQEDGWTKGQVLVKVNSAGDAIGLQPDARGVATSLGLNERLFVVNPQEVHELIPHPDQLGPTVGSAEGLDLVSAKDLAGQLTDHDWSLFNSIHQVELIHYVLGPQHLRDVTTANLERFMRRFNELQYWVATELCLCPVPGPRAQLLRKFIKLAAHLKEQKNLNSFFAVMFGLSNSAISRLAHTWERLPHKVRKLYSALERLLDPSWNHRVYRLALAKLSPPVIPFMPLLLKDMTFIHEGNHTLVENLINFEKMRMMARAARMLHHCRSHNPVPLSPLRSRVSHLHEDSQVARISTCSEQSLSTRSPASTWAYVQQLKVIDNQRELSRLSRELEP

Activity change, negative = inhibition, inactive:
CN(C)CCCN1c2ccccc2Sc2ccc(C(F)(F)F)cc21
O=c1cnc2cnc(N3CCOCC3)nc2n1Cc1cccs1 16.1%
CC1=C(CCC(=O)O)c2cc3nc(cc4[nH]c(cc5[nH]c(cc1n2)c(C)c5C(C)O)c(C)c4C(C)O)C(C)=C3CCC(=O)O (stereo not drawn) -9.54%
CCCOC(=O)c1ccccc1 7.24%
COc1cc(=O)n2c(c1C(=O)NCc1ccco1)CCN(C(=O)c1ccc(C)c(C)c1)CC2 15.5%
Cc1noc(C)c1-c1ccc2ncnc(NC3CC3)c2c1 31.1%
COc1ccc([C@@H]2CC(=O)c3c(O)cc(O)cc3O2)cc1O 14.1%
CC/C=C\C[C@H]1C(=O)CC[C@@H]1CC(=O)O 7.6%
Oc1ccccc1 24.5%
CCCCOCCOCCOCc1cc2c(cc1CCC)OCO2
CCN(CC)CCOC(=O)C1(C2CCCCC2)CCCCC1
COc1ccc(Oc2ncc3nc(-c4ccc(Cl)cc4)c(=O)n(C4CC4)c3n2)cc1 11.9%
O=C1CC(c2ccccc2O)Oc2ccc(O)cc21 (stereo not drawn) -13.5%
C#C[C@]1(O)CC[C@H]2[C@@H]3CCC4=C/C(=N/O)CC[C@@H]4[C@H]3CC[C@@]21CC 1.07%
CN(C)Cc1ccccc1-c1ccc2ncnc(NC3CCNCC3)c2c1 17.1%
CC(C)CN1CC[C@@]2(CCCN(C(=O)c3cccc(F)c3)C2)C1 0.054%
COCCN(C)C(=O)c1cnn(-c2ncc3c(n2)-c2ccccc2CC3)c1C 13.3%
CCCCC(O)c1ccccc1 (stereo not drawn) 21.4%
CC(=O)OC1CCC2(C)C3CCC4(C)C(CC5CCCCC54C(C)=O)C3CC(=O)[C@@]2(O)C1 (stereo partly drawn) -8.8%
COc1cccc(-c2nc(NCCc3c[nH]c4ccc(OC)cc34)c3ccccc3n2)c1 -6.68%
CCC(=O)OCC(=O)[C@@]1(OC(=O)CC)[C@@H](C)C[C@@H]2[C@H]3CCC4=CC(=O)C=C[C@]4(C)[C@@]3(F)[C@@H](O)C[C@@]21C 9.3%
C[N+]1(C)CCC(OC(=O)C(c2ccccc2)c2ccccc2)CC1
Oc1cc(O)c2c(c1)O[C@H](c1ccc(O)c(O)c1)[C@@H](O)C2
Cc1[nH]ccc2c1[nH]c1cc(=O)ccc12
O=Cc1c2[nH]c3ccccc3c2cc2[nH]c3ccccc3c12
CC(=O)Oc1ccccc1C(=O)Nc1ncc([N+](=O)[O-])s1 6.37%
Cc1cc[n+](CCC2CCCCC2)cc1 12.1%
COc1ncc2nc(-c3cn(C)c4ccccc34)c(=O)n(Cc3ccc(F)cc3)c2n1 12.8%
CC1(C)CCC2(C(=O)O)CC[C@]3(C)C(=CCC4[C@]5(C)CCC(O)C(C)(C)C5C(O)C[C@]43C)C2C1 (stereo partly drawn) 17.9%
COc1cc(-c2cnc3ccccc3c2)cc2c1OCCN(S(=O)(=O)C[C@]13CC[C@H](CC1=O)C3(C)C)C2 -1.83%
CN1CCN(c2ncncc2-c2ccccc2Cl)CC1 12.6%
O=C(O)C[C@H]1c2cc(C(F)(F)F)ccc2S(=O)(=O)N1C1CCCC1 15.6%
Cc1cccc(C)c1Nc1ncccc1C(=O)O 6.32%
COc1ccccc1C1CN(CC(=O)N2CCC(C(O)c3ccccn3)CC2)Cc2ccccc2O1 (stereo not drawn) -1.98%
COc1ccc(CNC(=O)C2CCCN2c2nc(C)c3ccccc3n2)cc1 (stereo not drawn) -5.85%
COc1ccc(NC(=O)N2CCC3(CC2)CCN(C(=O)c2ccncc2)CC3)cc1 17%
COc1c2occc2cc2ccc(=O)oc12
CC1=CC[C@@]2(CO)COC(c3ccccc3O)C1C2 (stereo partly drawn) -6.49%
CC(C)CN1CCC2(CC1)CCN(C(=O)c1ccncc1)CC2 11.6%
O=C(NN1CCCC1)NS(=O)(=O)c1ccc(Cl)cc1 33.3%
CCCCC/C=C\C/C=C\CCCCCCCC(=O)O[C@@H](CO)COC(=O)CCCCCCCCCCCCCCCCC -11.4% [at 15.3 µM]
NCc1ccccc1CC(=O)N[C@@H]1C(=O)N2C(C(=O)O)=C(CSc3nnnn3CC(=O)O)CS[C@H]12 27.1% [at 75.8 µM]
Cc1sc2ccccc2[n+]1CCC[n+]1c(C)sc2ccccc21 -14.4%
CCc1ccccc1OC[C@@H](O)CN[C@H]1CCCc2ccccc21 -18.6%
c1ncc(-c2ccc3c(c2)OCO3)c(NCCc2cnc[nH]2)n1 -7.1%
NC(=NC1C2CC3CC(C2)CC1C3)Nc1ccc(I)cc1 (stereo not drawn)
Cc1ncc2c(c1CNS(=O)(=O)N(C)C)CCN(C(=O)/C=C/c1cccc(F)c1)C2 10.3%
CN1CCN(C2=Nc3ccccc3Oc3ccc(Cl)cc32)CC1
Cc1c(Cn2ccnc2)c2ccccc2n1CCC(=O)O 9.6%
O=c1c(-c2ccc(Cl)cc2)nc2cnc(Oc3ccccc3)nc2n1C1CC1 8.57%
O=C1CCN(Cc2ccccc2)CCN1[C@H](CO)c1ccccc1
CC[C@@H]1[C@H]2CCCC(=O)N3CC[C@@H](C[C@@H]1OC(=O)Nc1ccc4c(c1)OCO4)[C@@H]23 -7.91%
CN(C)CC(C)(O)c1ccc2c(c1)CN(Cc1cccn1-c1ncccn1)CCO2 (stereo not drawn) 9.42%
CC(=O)NC1C(O)C[C@@](O)(C(=O)O)OC1[C@@H](O)C(O)CO (stereo partly drawn) 22.4%
CCCCCc1c2c(cc(O)c1C(=O)O)OC(=O)c1c(cc(OC)cc1C(=O)CCCC)O2 -2.86%
O=C(Nc1cccc(F)c1)N1CCCC2(CCN(S(=O)(=O)c3ccccc3)CC2)C1 9.15%
N[C@H](C(=O)O)c1ccc(O)c(C(=O)O)c1
CS(=O)(=O)N1CCC2(CCCN(Cc3ccc(C#N)cc3)C2)CC1 17%
O=c1c(-c2cc(F)cc(F)c2)nc2cncnc2n1Cc1ccccc1Cl -5.85%
N#Cc1ccc(C(c2ccc(C#N)cc2)n2cncn2)cc1 17.7% [at 75.8 µM]
CN(C)c1ncc2nc(-c3ccc(Cl)cc3)c(=O)n(C)c2n1 2.86%
CS(=O)(=O)Nc1cccc(-c2cc(Nc3ccccc3)ncn2)c1 2.07%
C[N+](C)(CCOc1ccccc1)Cc1cccs1 12.9%
C[N+]1(C)CCC(OC(=O)C(O)(c2ccccc2)C2CCCC2)C1 (stereo not drawn)
O=C(c1ccncc1)N1CCC2(CCCN(Cc3nccs3)C2)CC1 3.89%
CCCCCCCCCCCCCCCCCCOCC(O)CO (stereo not drawn) 3.08%
O=C(c1cccc(F)c1)N1CCC2(CC1)CCN(c1cccc(-c3ccccc3)c1)CC2 6.07%
CC(C)C(NS(C)(=O)=O)c1nnc2n1CCN(Cc1ccc(C#CC(C)(C)O)cc1)CC2 (stereo not drawn) 15%
CCC1CN(CC(=O)NCc2ccc3c(c2)OCO3)Cc2ccc(Cl)cc2O1 (stereo not drawn) 13.3%
CNC(=O)[C@@H]1C[C@@H](NCc2cccc(Oc3ccccc3)c2)CN1C(C)C 11.9%
O=Cc1ccccc1-c1cn(CCCOCc2ccccc2)nn1 -1.91%
O=C(O)c1cn(-c2ccc(F)cc2)c2cc(N3CCNCC3)c(F)cc2c1=O 8.11%
C#C[C@]1(O)CCC2C3CCC4=Cc5oncc5C[C@@]4(C)C3CC[C@@]21C (stereo partly drawn) -7.73%
CCCCCCCCCCCCCCC[C@@H](O)[C@H](CO)NC(C)=O 19.9% [at 15.3 µM]
COc1ccc(C(=O)NCCN2Cc3ccccc3OC(c3ccsc3)C2)c(OC)n1 (stereo not drawn) -10.3%
Cc1cnc(C)c(-c2cc(F)cc3c2OC(CNC(=O)CN2CCCC2)C3)n1 (stereo not drawn) 1.63%
CN(C)C(=O)c1ccc(-c2ccc3ncnc(N4CCNCC4)c3c2)cc1 -7.27%
Cc1nc2ccc(C(=O)N3CCc4c(cnc(C)c4CNC(=O)/C=C/c4cccs4)C3)cc2nc1C 9%
Nc1nc2c([nH]c(=S)n2C2OC(CO)C(O)C2O)c(=O)[nH]1 (stereo not drawn) 24%
O=c1c(-c2cccs2)nc2cnc(N3CCOCC3)nc2n1Cc1ccc(F)cc1 9.84%
Cc1cccc2nc(CNC(=O)CN3Cc4cc(Cl)ccc4OC(C)C3)cn12 (stereo not drawn) 8.16%
C[C@@H](NCc1cc(Br)cc2[nH]c(=O)c(=O)[nH]c12)P(=O)(O)O 5.27%
C[C@@](N)(C(=O)O)[C@@H]1C[C@@H]1C(=O)O 29.1%
C[C@@H]1C[C@H]2[C@@H]3C[C@H](F)C4=CC(=O)C=C[C@]4(C)[C@@]3(F)[C@@H](O)C[C@]2(C)[C@@]1(O)C(=O)CO 17.5% [at 75.8 µM]
CC(=O)N1CCC2(CC1)CCN(C(=O)Nc1cccc(F)c1)CC2 17.4%
CS(=O)(=O)N1CCC2(CCN(C(=O)Nc3cccc(C#N)c3)CC2)CC1 17%
COc1ccc(NC(=O)N2CCCC3(CCN(C(C)=O)CC3)C2)cc1 12%
O=C(O)Cc1ccc(-c2ccccc2)cc1 -8.12% [at 75.8 µM]
Clc1ccccc1-c1ccc2ncnc(NC3CCNCC3)c2c1 14.7%
CC(=O)NCCNc1ncnc2ccc(-c3ccccc3C#N)cc12 3.28%
COc1ccccc1-c1ccc2ncnc(N3CCOCC3)c2c1 7.63%
CN1C2CCC1CC(OC(=O)c1c[nH]c3ccccc13)C2 (stereo not drawn) 2.34% [at 75.8 µM]
Cc1ccccc1OCC(O)CNCCOc1ccc(C(N)=O)cc1 (stereo not drawn) 19.1%
O=C(NCCc1nnc2n1CCN(Cc1c(F)cccc1F)CC2)c1ccc(F)cc1 -7%
CC(C)NC[C@H](O)c1ccc2ccccc2c1 4.28%
O=C(Nc1cccc(F)c1)N1CCCC2(CCN(C(=O)c3cccc(F)c3)CC2)C1 18%
COc1ccc(-c2nc3cnc(OC)nc3n(C[C@H]3CCCO3)c2=O)cc1 16.1%
Cc1ccnc2cc(Cl)cc(Cl)c12 -22.9%
CC(=O)Oc1ccc2c(c1OC(C)=O)OCC1(O)Cc3c(cc(OC(C)=O)c(OC(C)=O)c3OC(C)=O)C21 (stereo not drawn) -11%
CCCCCCCCCCCCCCCC(=O)O[C@H]1[C@@H](O)[C@@H](O)[C@@H]([C@H](NC(=O)[C@@H]2C[C@@H](CCC)CN2C)[C@H](C)Cl)O[C@@H]1SC -5.3%
O=C(c1ccncc1)N1CCC[C@@]2(CCN(Cc3ccccc3)C2)C1 5.51%
COc1cccc(Nc2ncc3nc(-c4cc(F)cc(F)c4)c(=O)n(C4CC4)c3n2)c1 30.1%
Cc1nnc(C(=O)NC(C)(C)c2nc(C(=O)NCc3ccc(F)cc3)c(O)c(=O)n2C)o1 4.24%
